Reference: PubChem BioAssay AID1030 (National Center for Advancing Translational Sciences (NCATS), 2008)
Among all 220,000 compounds or so, about 16,000 (7.3%) were called active. Inconclusive means that the source gave no clear call. Such entries were picked first, then a sample of the others. Calls come from the whole dose curve; as a rule, active = well fitted inhibition curve with a large enough effect (not every such curve was filed as active); inconclusive = small, poorly fitted or top-dose-only effect, or another doubt; inactive = no such curve, though single readings can be large or run the other way. Where the call is inconclusive, the potency comes from a doubtful curve fit.

target: Aldehyde dehydrogenase 1A1 (Homo sapiens) (UniProt P00352); assay: qHTS Assay for Inhibitors of Aldehyde Dehydrogenase 1 (ALDH1A1); conditions: Purified ALDH1A1, NADH fluorescence, propionaldehyde substrate; series mostly up to 75.3 µM; activity, negative = inhibition: at the top concentration;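 for activity, negative = inhibition: plate controls were no enzyme wells and a reference inhibitor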
Chain of UniProt P00352 (P00352 whole entry, looked up): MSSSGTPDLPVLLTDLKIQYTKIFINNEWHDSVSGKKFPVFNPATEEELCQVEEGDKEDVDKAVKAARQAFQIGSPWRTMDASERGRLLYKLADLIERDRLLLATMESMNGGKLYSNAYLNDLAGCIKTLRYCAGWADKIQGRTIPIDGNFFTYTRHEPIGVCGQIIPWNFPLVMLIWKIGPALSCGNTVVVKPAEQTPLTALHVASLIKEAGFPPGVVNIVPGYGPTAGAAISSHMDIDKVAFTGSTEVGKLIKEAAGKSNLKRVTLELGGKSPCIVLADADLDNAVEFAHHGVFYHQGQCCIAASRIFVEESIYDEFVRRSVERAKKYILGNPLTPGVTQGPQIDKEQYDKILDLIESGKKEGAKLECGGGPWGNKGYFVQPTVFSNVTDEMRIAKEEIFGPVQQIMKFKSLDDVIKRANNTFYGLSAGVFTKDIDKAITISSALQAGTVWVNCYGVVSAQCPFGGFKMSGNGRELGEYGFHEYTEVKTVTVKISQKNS
Potency is the fitted concentration of half-maximal effect; tags give direction and shape of the fitted curve.

Potency, inconclusive:
COC(=O)c1cc2sccc2n1CC(=O)N(C)c1ccccc1 39.8 µM [inhibitor, single point]
O=C(CSCC(=O)NCc1ccco1)NCc1ccco1 39.8 µM [inhibitor, single point]
CCOC(=O)CCSc1nc2c(c(C(F)(F)F)c1C#N)CCC2 39.8 µM [inhibitor, single point]
COC(=O)Nc1ccc(S(=O)(=O)N2CCC(C(=O)N3CCCC(C)C3)CC2)cc1 (stereo not drawn) 28.2 µM [inhibitor, single point]
CNc1oc(-c2cccc3ccccc23)nc1C#N 25.1 µM [inhibitor, partial curve]
COC(=O)c1ccc(CNC(=O)COC(=O)C23CC4CC(CC(C4)C2)C3)cc1 31.6 µM [inhibitor, single point]
CCn1cnc2cc(NS(=O)(=O)c3ccc(C)cc3)ccc21 17.8 µM [inhibitor, partial curve]
CC(C(=O)NCc1ccccc1)N1C(=O)C2CC=C(Cl)CC2C1=O (stereo not drawn) 39.8 µM [inhibitor, single point]
CC1CCN(C(=O)COC(=O)c2cc(Cl)cc(Cl)c2N)CC1 29.9 µM [inhibitor, partial curve]
CCOC(=O)c1ccc(NC(=O)C(=O)NCc2ccncc2)cc1 11.2 µM [inhibitor, partial curve]
CCC(C)C1NC(=S)N(Cc2ccccc2)C1=O (stereo not drawn) 39.8 µM [inhibitor, single point]
COc1cc(NC(=O)CS(=O)(=O)c2ccccc2)cc(OC)c1OC 31.6 µM [inhibitor, single point]
CC(NS(=O)(=O)c1ccccc1)C(c1cccs1)N1CCN(c2ccccc2)CC1 (stereo not drawn) 39.8 µM [inhibitor, single point]
COc1ccc(-c2nc3cccc(C)n3c2NCC2CCCO2)cc1O (stereo not drawn) 35.5 µM [inhibitor, partial curve]
CC(C)C(=O)Nc1ccc(NC(=S)NC(=O)c2ccc([N+](=O)[O-])cc2)cc1 39.8 µM [inhibitor, single point]
Cc1ccc(C)c(OCCn2cc(/C=C(\C#N)C(=O)NCC3CCCO3)c3ccccc32)c1 (stereo not drawn) 39.8 µM [inhibitor, single point]
CC(C)(C)/C(O)=C/c1nc2ccccc2oc1=O 39.8 µM [inhibitor, single point]
Cc1c(NC(=O)CSCc2c(F)cccc2Cl)c(=O)n(-c2ccccc2)n1C 44.7 µM [inhibitor, single point]
C=CCn1c(O)c(N=NC(=O)c2ccc3c(c2)OCO3)c2ccccc21 39.8 µM [inhibitor, single point]
Cc1ncc(CO)c(/C=N/NC(=O)c2cc(O)c(O)c(O)c2)c1O 39.8 µM [inhibitor, single point]
COc1cc2c(cc1NC(=O)Nc1cccc(C)c1)oc1ccccc12 25.1 µM [inhibitor, partial curve]
Oc1ccc(Br)cc1-c1nc2cnccn2c1NC1CCCC1 39.8 µM [inhibitor, single point]
Cc1cccc(N2C(=O)CC(N3CCC(c4nc5ccccc5[nH]4)CC3)C2=O)c1 (stereo not drawn) 35.5 µM [inhibitor, single point]
COc1cc(/C=C2\SC(N3CCc4ccccc4C3)=NC2=O)cc(OC)c1OC 25.1 µM [inhibitor, single point]
Cc1ccc(NC(=O)CSc2nnc([C@@H]3CCCN3C(=O)OC(C)(C)C)o2)c(C)c1 39.8 µM [inhibitor, single point]
COc1cc(C(=O)OCC(=O)c2cc(C)n(C)c2C)cc(NC(=O)c2ccco2)c1OC 37.7 µM [inhibitor, single point]
COCc1cc(=O)[nH]c2cc(NC(=O)C3CC3)c(C)cc12 39.8 µM [inhibitor, single point]
CCCC(=O)N1c2ccccc2NC2=C(C(=O)CCC2)C1c1ccc(F)cc1 (stereo not drawn) 39.8 µM [inhibitor, single point]
COc1cc2cc(C(=O)O)[nH]c2c(OC)c1OC 22.4 µM [inhibitor, partial curve]
COc1ccc(C)cc1-n1nnnc1SCC(=O)Nc1cccnc1Cl 25.1 µM [inhibitor, single point]
Cn1cnnc1SCC(=O)Nc1cc(C(F)(F)F)ccc1N1CCOCC1 20 µM [inhibitor, partial curve]
COc1ccc(C(=O)N/N=C/c2ccc(N3CCOCC3)o2)cc1OC 35.5 µM [inhibitor, single point]

Potency, inactive:
Nc1ccc2oc(-c3ccccc3Cl)cc(=O)c2c1O
N[C@H](C(=O)O)c1cccc(O)c1

Potency, active:
O=C(Cn1nnc(-c2cc(C(F)(F)F)cc(C(F)(F)F)c2)n1)NNC(=S)Nc1ccc(Cl)cc1 1.26 µM
COc1ccc(S(=O)(=O)N2CCCCCC2)cc1C(=O)OCc1c(C)noc1C 14.1 µM
O=C(C[n+]1ccn(CCCNP2(=O)C=C(c3ccccc3)OC(c3ccccc3)=C2)c1)c1cccs1 14.1 µM
CC(=O)Nc1ccc2c(c1)CCCN2C(=O)c1ccccc1 14.1 µM
CCCCn1c(SCC(=O)NCc2ccco2)nnc1-c1ccco1 20 µM
CCn1cc(C(=O)NCCOC)c(=O)c2ccc(C)nc21 11.2 µM
S=c1[nH]nc(COc2ccccc2)n1Cc1ccccc1 11.2 µM
CC(=O)c1ccc(OCCN2CCOCC2)cc1 25.1 µM
CC1CCN(C(=O)CN2C(=O)C(=O)c3ccccc32)CC1 0.355 µM
Cc1ccc(N=c2ssnc2Cl)cc1 2.24 µM
CCCS(=O)(=O)c1nnnn1-c1cccc(OC)c1 1.41 µM
O=C(/C=C/c1ccco1)N1CCN(C/C=C/c2ccccc2)CC1 12.6 µM
O=C(NCc1ccccc1Cl)C1CCN(C(=O)c2sccc2-n2cccc2)CC1 1.41 µM
CN(C)CCC#CC(O)(c1ccccc1)c1ccccc1 25.1 µM
N=c1sccn1CC(=O)Nc1ccc(Cl)cc1[N+](=O)[O-] 28.2 µM
CCc1ccc(N2CSC3=C(C#N)C(c4cccs4)CC(=O)N3C2)cc1 (stereo not drawn) 8.91 µM
COc1ccc(N(C)C(=S)Nc2ccc3nc(C)c(C)nc3c2)cc1 10 µM
COc1ccc2c(c1)CC/C(=C\C=C\c1ccccc1)C2=O 28.2 µM
COc1ccc(C)cc1NC(=O)C(OC(=O)c1ccc([N+](=O)[O-])o1)c1ccccc1 (stereo not drawn) 17.8 µM

activity, negative = inhibition, inactive:
CC1CCC(C(C)C)C(OP(=O)(c2ccc(N(C)C)cc2)C(O)c2cccnc2)C1 (stereo not drawn) -1.66%
COc1ccc(/C=C/C(=O)c2cc3c(cc2N)OCO3)cc1 1.22%
O=C(/C=C/c1ccc(Cl)cc1)NC(=S)Nc1ccc(NC(=O)c2ccco2)cc1 14.9%
Cc1cc(C)c2c(CC(=O)N(CCC#N)Cc3cccnc3)coc2c1 -12.6%
CCCn1c(C)nc2c(NC3CCCCC3)nc(C)nc21 2.47%
O=C(c1cc(C(F)(F)F)cc(C(F)(F)F)c1)N1CCC2(CCN(Cc3nccs3)CC2)CC1 14.8%
O=C(Nc1nccs1)C1CCCN1S(=O)(=O)c1ccc(F)cc1 (stereo not drawn) -8.57%
CCN(CC)CC(C)OC(=O)c1cc(OC)c(OC)c(OC)c1 (stereo not drawn) 3.19%
CN(C)/C=C1\C(=O)N(c2ccc(Cl)cc2)CS1(=O)=O 4.95%
CC1CCc2sc(C(=O)Nc3ccc(N4CCOCC4)cc3)cc2C1 (stereo not drawn) -0.952%
CC[n+]1c(-c2ccccc2)csc1Nc1c(C)n(C)n(-c2ccccc2)c1=O 0.253%
CCCCCCC=O -9.05%
CCCNC1=C(N(C(C)=O)c2cccc(F)c2)C(=O)c2ccccc2C1=O 17.7%
CCC/C=C(\CCC)C(NC(=O)c1ccc(C(F)(F)F)cc1)c1ccc(C(F)(F)F)cc1 (stereo not drawn) -1.56%
COc1ccc(-n2cnc3ccccc32)cc1 0.617%
COc1ccc2[nH]c3nc(SCc4nnc(-c5ccc(C)cc5)o4)nnc3c2c1 -3.18%
CC(=O)c1sc(NC(=O)CCCOc2ccccc2C)nc1C 18.5%
O=C(CSc1nc(-c2ccccc2)cs1)Nc1ccccc1[N+](=O)[O-] -7.16%
CCOc1ccc(/C=N/NC(=S)NC2CC3CC2C2C=CCC32)cc1 (stereo not drawn) 7.97%
CC(C)(CS(=O)(=O)[O-])NC(=O)CC[N+](C)(C)CCO 4.45%
Cc1onc(-c2ccncc2)c1C(=O)O 13.4%
CCC(NC(=O)Nn1cnnc1)(C(F)(F)F)C(F)(F)F 1.53%
Cc1nc2ccc(C(=O)OCc3ccccc3Br)cc2nc1C -13.4%
Cc1ccc2c(c1)-c1nc3ccccc3cc1C2=NC1CCCCC1 -0.95%
CC(=O)N(C(C)=O)c1nc2nc(C)cc(C)n2n1 -0.809%
CCNC(=O)CCC(N)C(=O)O (stereo not drawn) 5.68%
COc1cccc(NC(=O)CN2CCN(S(=O)(=O)c3ccc(F)cc3)CC2)c1 10.3%
Cc1ccc(S(=O)(=O)NC(=O)c2ccccc2)cc1C(C)C 1.82%
COCC(C)n1c(C)cc(C(=O)CSc2nc3ccccc3c(=O)[nH]2)c1C (stereo not drawn) -7.66%
O=C(c1cc(F)ccc1F)C1CCCN(C(=O)CCN2CCCCO2)C1 (stereo not drawn) 3.61%
